Part of at least one peptide drawing is inferred or uncertain, most often the ends. Some compounds share one wording; it may come from a single statement. Where no end group is shown, it is not given here.
Legend:
Assay type in all cases: cell-based
[1] = test system: Erwinia carotovora carotovora strain SR319 (Ecc SR319); assay: Antibacterial bioassay, minimum complete inhibitory concentration (MCIC); details: for MEAN MCIC VALUE: lowest peptide concentration with no bacterial growth, after 20 hours, Luria broth, 28° C., mean of at least three replicate experiments; for activity against bacteria (in words): AMPPPs named as having diminished activity against bacteria; for activity against Ecc SR319 (in words): even at concentrations higher than 150 micrograms AMPPP/mL; for activity against plant pathogenic fungi compared with bacterium Ecc SR319 (in words): comparison of Table II with Table I
Description: Erwinia carotovora carotovora strain SR319 (Ecc SR319) (a gift of Dr. C. H. Liao, USDA-ARS, Philadelphia, Pa.) was streaked on a plate of LB agar and grown overnight at 28° C. After 24 hours, a loopful of Ecc SR319 was picked from the agar plate and was added to 3 mL of Luria broth (10 g Bacto-tryptone, 5 g Bacto-yeast extract, and 10 g sodium chloride per liter of solution; autoclaved sterile) in a capped, sterile 10 mL test tube. This culture was grown overnight before its optical density at 630 nm was recorded using a Dynatech MR600 microplate reader (Dynatech Laboratories, Inc., Alexandria, Va.). A portion of the overnight culture was adjusted with Luria broth to obtain a culture with an optical density at 630 nm of 0.2. About 250 microliters of this culture was added to 2250 microliters of Luria broth in a capped, sterile 10 mL test tube before this diluted culture was grown for 3 hours at 28° C. in a shaking incubator. The optical density at 630 nm of the freshly grown culture was recorded and a portion of this mid-logarithmic growth phase culture was diluted 1000-fold with Luria broth to an approximate concentration of about 10^5 colony forming units per mL of culture. About 85 microliters of this diluted culture was added to 12 wells in a 96 well microtiter plate for each AMPPP to be tested, with 1-4 replicate sets of 12 wells prepared for each AMPPP within a single experiment. Stock solutions of each AMPPP were prepared at a concentration of 1 mg/mL and 0-15 microliters of each peptide stock solution were added to a single well in the microtiter plate followed by a sufficient volume of water to bring the total well volume to 100 microliters. Typical peptide volumes assayed were 0, 1, 2, 3, 4, 5, 6, 7, 8, 9, 10 and 15 microliters, which corresponds to a final peptide concentration in the range of 0-150 micrograms/mL. The microtiter plates were sealed with parafilm and incubated on a shaking platform at 28° C. for 44 hours. The optical density of each Ecc SR319 culture well was recorded at 20 hours and then at 44 hours. A minimum complete inhibitory concentration (MCIC) was then determined for each replicate set of varying peptide concentrations for each AMPPP whereby the MCIC is defined as the lowest peptide concentration at which no bacterial growth was observed. Table I lists mean MCIC values computed after 20 hours of treatment from at least three replicate experiments with each AMPPP. "Met(S)(O)" and "Met(R)(O)" refer to the diastereomeric forms of a methionine sulfoxide residue.
Although most of the AMPPP compounds listed in Table I were greater than 95% homogeneous following reverse phase HPLC purification, AMPPPs #24-26 and #28 were only 50-80% pure following partial purification and salt exchange by ion exchange chromatography.

Trichoderma reesei = assay: Antifungal bioassay (spore germination MCIC); details: for Mean MCIC Values against: Trichoderma reesei (10^6 spores): lowest concentration with no spore germination, after 24 hours
Description: Fungi are grown on an appropriate medium, in this case a potato dextrose agar plate, for several weeks. At the end of that period, the plate was flooded with about 5 mL of sterile distilled water to harvest spores. The spore concentration was determined by use of a hemocytometer and the spore suspension was stored in a sterile tube at 4° C. until it was needed. Then 82 microliters of potato dextrose broth and 3 microliters of spore suspension (ranging from 10^5 to 10^7 spores total) was then added to 12 wells in a 96 well microtiter plate for each AMPPP to be tested, with 1-4 replicate sets of 12 wells prepared for each AMPPP within a single experiment. In several instances, more than one spore concentration was used in order to determine the efficacy of certain AMPPPs as a function of the number of target spores. Stock solutions of each AMPPP were prepared at a concentration of 1 mg/mL and 0-15 microliters of each peptide stock solution were added to a single well in the microtiter plate followed by a sufficient volume of water to bring the total well volume to 100 microliters. Typical peptide volumes assayed were 0, 1, 2, 3, 4, 5, 6, 7, 8, 9, 10, and 15 microliters, which corresponds to a final peptide concentration in the range of 0-150 micrograms/mL. The microtiter plates were sealed with parafilm and incubated at room temperature for 48 hours. The fungal growth was observed after 24 and 48 hours by microscope using a 4× and/or a 10× objective lens. The amount of spore germination and fungal growth was recorded as a qualitative measurement at each observation time using a system of pluses and minuses: [-] meant no germination having occurred, [+] meant swollen spores with an extended germ tube, [++] meant the beginnings of mycelial growth with the overall appearance of a loose lattice, and [+++] meant a dense mycelial growth with the overall appearance of a thick opaque meshwork. The MCIC value for each AMPPP tested was then recorded, where the MCIC value is defined as the lowest peptide concentration at which no spore germination occurred (rating=[-]). Table II lists mean MCIC values computed after 24 hours of treatment from at least three replicates with each AMPPP for each of two or three plant pathogenic fungi tested: Alternaria alternata (a gift of Dr. Harvey Spurr, Jr., USDA-ARS, Oxford, N.C.), P3 Fusarium (field isolate), and Trichoderma reesei (a gift of Dr. John Ellis, USDA-ARS, Peoria, Ill.). The identity of AMPPPs in Table II is the same as detailed in Table I.

Alternaria alternata = assay: Antifungal bioassay (spore germination MCIC); details: lowest concentration with no spore germination, after 24 hours

Sequence	MEAN MCIC VALUE [1] [micrograms/mL]	Mean MCIC Values against: Trichoderma reesei (10^6 spores) (Trichoderma reesei) [micrograms/mL]	Mean MCIC Values against: Alternaria alternata (10^6 spores) (Alternaria alternata) [micrograms/mL]	activity against bacteria (in words) [1]	activity against Ecc SR319 (in words) [1]	activity against plant pathogenic fungi compared with bacterium Ecc SR319 (in words) [1]	activity against Trichoderma reesei (in words) (Trichoderma reesei; treatment dose range 0-150 micrograms AMPPP/mL)
MGKFLHSAKKFGKAFVGEIMNS [AMPPP 9, [Des Gly^1, Met^2]Mag 2-OH]	150	75	150				
GIGKFLHSAHHFGKAFVGEIMNS [AMPPP 14, [His^10, His^11]Mag 2-OH]	> 150	50	130	diminished activity against bacteria	not active		
GIGKFLHSAKKFGKAFVGEIMNS [AMPPP 1, Magainin 2-OH, reference compound]	40	55	85			approximately as active against plant pathogenic fungi as against bacterium Ecc SR319	
GIGKFLHSAKKFAKAFVAEIMNS [AMPPP 10, [Ala^13, Ala^18]Mag 2-OH, reference compound]	5	90	120				
GIGKFLHSAHKFGKAFVGEIMNS [AMPPP 12, [His^10]Mag 2-OH]	> 150	30	100	diminished activity against bacteria	not active		
MGIGKFLHSAKKFGKAFVGEIMNS [AMPPP 3, [Met]Mag 2-OH]	70	50	110				
MGIGKFLHSAKKFAKAFVAEIMNS [AMPPP 11, Met [Ala^13, Ala^18]Mag 2-OH]	25	110	140				
GIGKFLHSAKKFGKAFVGEIM [AMPPP 22, [Des Asn^22, Des Ser^23]Mag 2-OH]	> 150	60			not active		
GIGKFLHSAPKFGKAFVGEIMNS [AMPPP 4, [Pro^10]Mag 2-OH, reference compound]	> 150	> 150			not active		exceptions to the AMPPPs active against fungi
GIGKFLHSAKHFGKAFVGEIMNS [AMPPP 13, [His^11]Mag 2-OH]	> 150	40	95	diminished activity against bacteria	not active		
GIGKFLKSAKKFGKAFVGEIMNS [AMPPP 18, [Lys^7]Mag 2-OH]	35	50				approximately as active against plant pathogenic fungi as against bacterium Ecc SR319	
GIGKFLHSAGKFGKAFVGEIMKS [AMPPP 2, Magainin 1-OH, reference compound]	125	30				much more effective against plant pathogenic fungi than against bacterium Ecc SR319	

— patent US5424395A (priority 1992, dated 1995)
